# Measurements: the supplement of paper PMC9513381
# How the values were obtained:
# [1] = molecular target: SARS-CoV-2 Wuhan-Hu-1 spike pseudovirus; assay: pseudovirus neutralization IC50; higher = weaker neutralization
# Method: (§1)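 Single-round luciferase reporter pseudovirus mixed with antibody dilutions and put on 293T-ACE2 cells for 48 h; signal relative to no-antibody wells, four-parameter fit.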
# [2] = molecular target: SARS-CoV-2 Wuhan-Hu-1 spike pseudovirus; assay: pseudovirus neutralization IC90; higher = weaker neutralization
# Method: as §1
# [3] = molecular target: SARS-CoV-2 Delta (B.1.617.2) spike RBD; assay: ELISA binding EC50; higher = weaker binding; ELISA of recombinant human antibody on coated antigen, from 10 µg/ml in fourfold dilutions; four-parameter fit.
# [4] = molecular target: SARS-CoV-2 Omicron BA.1 spike protein; assay: as above
# [5] = molecular target: SARS-CoV-2 Wuhan-Hu-1 spike receptor-binding domain; assay: as above
Binder,pseudovirus neutralization IC50 [1],pseudovirus neutralization IC90 [2],ELISA binding EC50 [3],ELISA binding EC50 [4],ELISA binding EC50 [5]
B631 (protein) chain 1: EVQLVESGGGLVQPGRSLRLSCAASGFTFDDYAMHWVRQAPGKGLEWVSGISWNSGRTAYADSVKGRFTISRDNAKNSLYLQMNSLRAEDTALYYCAKASCGGDCYSLLLSPDGFDIWGQGTMVTVSS chain 2: QSVLTQPPSVSGAPGQRVTISCTGSSSNIGAGYDVHWYQQLPGTAPKLLIYDNNNRPSGVPDRFSGSKSGTSASLAITGLQAEDEADYYCQSYDSSLGGLVLFGGGTKLTV,> 1 µg/mL,> 1 µg/mL,0.192 µg/mL,0.985 µg/mL,0.00685 µg/mL
B624 (protein) chain 1: QVQLVQSGAEVKKPGASVKVSCKASGYTFTSYYMHWVRQAPGQGLEWMGIINPSGGSTSYAQKFQGRVTMTRDTSTSTVYMELSSLRSEDTAVYYCASSPLFNWGQLYYFDYWGQGTLVTVSS chain 2: QSVLTQPPSVSGAPGQRVTISCTGSSSNIGAGYDVHWYQQLPGTAPKLLIYGNSNRPSGVPDRFSGSKSGTSASLAITGLQAEDEADYYCQSYDSSLSDNWVFGGGTKLTVL,> 1 µg/mL,> 1 µg/mL,0.0505 µg/mL,0.0246 µg/mL,0.00131 µg/mL
B633 (protein) chain 1: EVQLVESGGGLIQPGGSLRLSCAASGFIVSSNYMSWVRQAPGKGLEWVSVIYSGGSTFYADSVKGRFTISRDNSKNTLYLQMNSLRAEDTAVYYCARTLPGTTDLFDYWGQGTLVTVSS chain 2: QSVLTQPPSVSGAPGQRVTISCTGSSSNIGAGYDVHWYQQLPGTAPKLLIYGDSNRPSGVPDRFSGSKSGTSASLAITGLQAEDEADYYCQSFDSSLSGLGVFGTGTKVTVL,0.0148 µg/mL,0.12 µg/mL,0.0293 µg/mL,> 1 µg/mL,0.00342 µg/mL
B632 (protein) chain 1: QVQLVQSGAEVKKPGASVKVSCKASGYTFTRYVMHWVRQAPGQRLEWMGWINGGNGDTKYSQKFQGRVTITRDTSASTAHMELRSLRSEDTAVYYCARDLYYYNRSGHYDVDYNLDYWGQGTLVTV chain 2: QSVLTQPPSVSGAPGQRVTISCTGSSSNTGAGYDVHWYQQLPGTAPKLLIYGNTNRPSGVPDRFSGSKSGTSASLAITGLQAEDEADYYCQSYDSSLSGYVIFGGGTKLTVL,0.0321 µg/mL,0.362 µg/mL,0.00317 µg/mL,0.0142 µg/mL,0.0028 µg/mL
B623 (protein) chain 1: QVQLVESGGGVVQPGRSLRLSCAASGFTFSSHAMHWVRQAPGKGLEWVAVILDDGSNKYYADSVKGRFTISRDNSRNTLYLQMNSLRVEDTAVYYCARDYHVDRVMVTWFDPWGQGTLVTVSS chain 2: DIQMTQSPSSLSASVGDRVNIHCRASQSIGTYLNWYQQKPGKAPKLLIYVVSNLQSGVPSRFSGSGSGTDFTLTISSLQPEDFATYYCQQSYSTPPWTFGQGTKVEIK,> 1 µg/mL,> 1 µg/mL,0.0163 µg/mL,0.0417 µg/mL,0.00194 µg/mL
B614 (protein) chain 1: EVQLVESGGGLIQPGGSLRLSCAASGIIVSSNYMNWVRQAPGKGLEWLSVFYPGGTTQYADSVKGRFTISRDNSKNTLYLQMNSLRAEDTAVYYCARDRWEGAFDIWGQGTMVTVSS chain 2: DIQLTQSPSFLSASVGDRVTITCRASQGISNYLAWYQQKPGKAPKLLIYAASTLQSGVPSRFSGSASGTEFTLTISSLQPEDFATYYCQQLNSYPRLTFGGGTKVEIK,0.00756 µg/mL,0.0308 µg/mL,0.00463 µg/mL,> 1 µg/mL,0.00176 µg/mL
B1076 (protein) chain 1: EVQLVESGGGLIEPGGSLRLSCTASELIVSRNYMTWVRQAPGKGLEWVSVIYAGGTTYYADSVKGRFTISRDNSKNTLYLQMNRLRAEDTAVYYCARDLVNSGLDCWGQGTLVTVSS chain 2: DIQLTQSPSFLSASVGDRVTITCRASQGISSYLAWYQQKPGKAPKLLIYAASTLQTGVPSRFSGSGSGTEFTLTISSLQPEDFATYYCQQLDSYPPYTFGQGTKLEIK,0.00825 µg/mL,0.0843 µg/mL,0.0172 µg/mL,> 1 µg/mL,0.00379 µg/mL
B2103 (protein) chain 1: EVQLVESGGDLVHPGESLTLSCAASGFTFSSYSMNWVRQAPGKGLEWVSYVSSSATTIYYAESVKGRFTISRDNAKNSLYLQMNSLRDEDMAVYYCARDRTPFYDAWNGWGPLDYWGQGTLVTVSS chain 2: DIVMTQSPDSLAVSLGERATINCKSSQSVLRSSNNKNYLAWYQQKRGQPPKLLIYWASTRESGVPDRFSGSGSGTDFTLTISTLQAEDVAVYYCQQYYGPLYTFGQGTKLEIK,> 1 µg/mL,> 1 µg/mL,0.0532 µg/mL,0.516 µg/mL,0.00648 µg/mL
B628 (protein) chain 1: EVQLVESGGGLVQPGRSLRLSCAASGFTFDDYAMHWVRQYPGKGLEWVSGASWNSGTIGYGDSVKGRFIISRDNAKNSVYLQMNSLRPEDTALYYCAKSLRRDAYNYDDCAFDIWGQGTMVTVSS chain 2: SYVLTQPPSVSVAPGQTARITCGGNNIGSKSVHWYQQKPGQAPVLVVYDDSDRPSGIPERFSGSNSANTATLTISRVEAGDEADYYCQVWHSSSEHQVFGTGTKVTVL,0.037 µg/mL,0.52 µg/mL,0.0741 µg/mL,0.0187 µg/mL,0.000775 µg/mL
B635 (protein) chain 1: EVQLVESGGGLIQPGGSLRLSCAASGFIVSSNYMSWIRQAPGKGLEWVSILYPGGSAFYADSVKGRFTISRDNSKSTLYLQMNSLRAEDTAVYYCARYGLWLDWGQGTLVTVSS chain 2: EIVLTQSPATLSLSPGERATLSCRASENIVSYLAWYQQKPGQAPRLLIYDASNRATAIPARFSGSGSGTDFTLTISSLEPEDFAIYYCQQRSDWPPLTFGQGTKVEIK,0.0111 µg/mL,0.0394 µg/mL,0.00629 µg/mL,> 1 µg/mL,0.00216 µg/mL
B1077 (protein) chain 1: QVQLQESGPKLVKPSETLSLTCTVSGASISSYYWSWIRQPPGKGLEWIGYIFYNGRTSYNPSLKSRVTLSVDTSKDQFSLKLNSVTAADTAVYFCATDYYDTSGWHYGLDYWGQGALVTVSS chain 2: DIQLTQSPSFLSASVGDRVTITCRASQGISSHLGWYQQKPGKAPKLLIYGASTLQSGVPSRFSGSGSGTEFTLTISSLQPEDFATYYCQQLNSYRLFGQGTRLDIK,> 1 µg/mL,> 1 µg/mL,0.0192 µg/mL,0.027 µg/mL,0.00424 µg/mL
B626 (protein) chain 1: EVQLVESGGDLVQPGGSLRLSCAASGFTFNKYYMNWVRQAPGKGLEWVANIKQDGSEKYYVGSVKGRFTISRDNAKNSLYLQMSSLRAEDTAVYYCASGEWLRGPFDYWGQGTLVTVSS chain 2: NFMLTQPHSVSESPGKTVTISCTGSSGSIASNYVQWYQQRPGSAPTTVIYEDNQRPSGVPDRFSGSIDSSSNSASLTISGLKTEDEADYYCQSYDSTIFYVFGTGTKVTVL,0.086 µg/mL,> 1 µg/mL,0.00486 µg/mL,0.223 µg/mL,0.00158 µg/mL
B634 (protein) chain 1: EVQLVESGGGLVKPGGSLRLSCSASGFIFTNYNMHWVRQAPGKGLEWVSSISSGSDYIYYSDSLKGRFTISRHNAKNSLYLHMNSLRAEDTAVYYCAREGYHSGLDVWGLGTTVSVSS chain 2: EIVLTQSPGTLSLSPGERATLSCRASQSVSSSYLAWYQHKPGQAPRLLIYGASSRAPGIPDRFSGSGSGTDFTLTISRLEPEDFAVYYCQQYGNSPLITFGQGTRLEIK,0.0323 µg/mL,0.121 µg/mL,0.0269 µg/mL,> 1 µg/mL,0.00896 µg/mL
B2102 (protein) chain 1: QVQLVQSGAEMKKPGSSVKVSCEASGNTFSTYPISWVRQAPGQGLEWMGRIIPMLGIANYAQKFQDRVTITVDKSTSTAYMELTSLRSEDTAVYYCARTPSRPDSNTWYFHQWGQGTLVTVSS chain 2: QSVLTQSPSVSGAPGQRVTISCTGSNSNIGAGYDVHWYQQLPGTAPKLLIYANNNRPSGVPDRFSGSKSDTSASLAITGLQAEDEADYYCQSYDSSLSDSVFGGGTKLTVL,0.116 µg/mL,> 1 µg/mL,0.0428 µg/mL,0.0205 µg/mL,0.00728 µg/mL

# Recombinant human monoclonal antibodies (heavy:light variable regions). ELISA EC50 on the named antigen, from 10 µg/ml down; IC50 / IC90 against spike pseudovirus on 293T-ACE2 cells, 48 h; lower = stronger. Calls: IC50 above 1,000 ng/ml = non-neutralizing; EC50 above 1,000 ng/ml = non-binder. The source prints 1000 for neutralization that was not reached; it is given as >1000 ng/ml. Only binders of the Wuhan-Hu-1 domain have neutralization values.
